Test results taken from PubChem BioAssay AID485294 (National Center for Advancing Translational Sciences (NCATS), 2010).
Hit rate of the full screen: of about 370,000 compounds, about 150 (0.041%) were called active. This list was built around the results that the source calls inconclusive (neither active nor inactive); the mix of calls is not that of the screen. The call rests on the fitted dose curve; in most records, active means well fitted inhibition curve with a large enough effect; inconclusive means small, poorly fitted or top-dose-only effect; inactive means flat fitted curve, though single readings scatter. Potencies of inconclusive entries are left out as doubtful fits.

molecular target: Beta-lactamase (Escherichia coli (strain K12)) (UniProt P00811); assay: qHTS Inhibitors of AmpC Beta-Lactamase (assay with detergent); conditions: AmpC hydrolysis of nitrocefin, absorbance 480 nm, 0.01% Triton; activity change, negative = inhibition: at 114 µM (top of the series); further: nearly all actives have a fitted effect of over 25% in size;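 on activity change, negative = inhibition: 0% = no-compound wells and -100% = no-enzyme wells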
Outline: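 AmpC (5.3 nM in the dispensed reagent) in 20 mM phosphate pH 7.0 with 0.01% (detergent screen) or 0.0001% Triton X-100 was preincubated with compounds for 15 min at room temperature. Nitrocefin was then added from an 800 uM solution, and hydrolysis was followed at 480 nm.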
Potency means the concentration at half of the fitted maximal effect; tags describe the fitted curve by direction and shape.

UniProt P00811, sequence (P00811 whole entry, looked up): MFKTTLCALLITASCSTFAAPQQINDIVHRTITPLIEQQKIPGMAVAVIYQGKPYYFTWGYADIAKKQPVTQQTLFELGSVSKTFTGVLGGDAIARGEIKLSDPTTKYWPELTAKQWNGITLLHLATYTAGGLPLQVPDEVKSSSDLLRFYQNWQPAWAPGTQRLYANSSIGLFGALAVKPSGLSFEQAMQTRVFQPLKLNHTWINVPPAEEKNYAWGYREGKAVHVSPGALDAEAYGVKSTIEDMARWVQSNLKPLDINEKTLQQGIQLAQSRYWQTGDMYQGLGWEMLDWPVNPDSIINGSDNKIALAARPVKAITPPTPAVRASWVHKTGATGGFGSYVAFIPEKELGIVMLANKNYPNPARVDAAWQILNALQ

Row | SMILES | activity change, negative = inhibition | Potency
1 | Cc1oc(-c2ccc3c(c2)OCCO3)cc1C(=O)NC(Cc1ccccc1)C(=O)O (stereo not drawn) | inactive: -1% | –
2 | Cc1onc(-c2c(Cl)cccc2Cl)c1C(O)c1ccc(F)cc1 (stereo not drawn) | – | inconclusive [inhibitor, partial curve]
3 | CC(Oc1ccc(F)cc1F)C(=O)/C=C/N(C)C (stereo not drawn) | – | inconclusive [inhibitor, partial curve, poor fit]
4 | O=C(Nc1ccccn1)c1cccc(S(=O)(=O)N2CCc3ccccc3C2)c1 | – | inconclusive [inhibitor, full curve]
5 | O=C(NCc1ccco1)/C(=C\c1cccs1)NC(=O)c1ccccc1 | – | inconclusive [inhibitor, full curve, poor fit]
6 | CCOc1ccccc1NC(=O)c1nc(S(=O)(=O)Cc2ccccc2)ncc1Cl | inactive: 1.49% | –
7 | Cc1noc(Cn2c(=O)c3cc4c(cc3n(CC(=O)Nc3cccc(Cl)c3)c2=O)OCO4)n1 | inactive: -8.67% | –
8 | CCOC(=O)[C@@H]1[C@H]2COc3cc(OC)ccc3[C@@H]2N2C(=O)N(c3ccc(Cl)cc3)C(=O)[C@@]12C | inactive: -10.1% | –
9 | CCC(=O)Nc1nc(-c2ccc3c(c2)OCCO3)cs1 | – | inconclusive [inhibitor, full curve, poor fit]
10 | CCCCCn1c(N2CCOCC2)nc2c1c(=O)n(CC(N)=O)c(=O)n2C | – | inconclusive [inhibitor, full curve, poor fit]
11 | Cc1ccc2nc3c(cc(C(=O)NCCCn4ccnc4)n3C)c(=O)n2c1 | – | inconclusive [inhibitor, full curve, poor fit]
12 | O=C(CSc1nc2[nH]ncc2c(=O)[nH]1)Nc1ccc(Cl)cc1 | – | inconclusive [inhibitor, full curve, poor fit]
13 | COc1ccc(CCNC(=O)[C@@H](NC(N)=O)C(C)C)cc1 | – | inconclusive [inhibitor, full curve]
14 | COc1ccc(CN(C)Cc2nc3scc(-c4ccccc4)c3c(=O)[nH]2)cc1OC | – | inconclusive [inhibitor, full curve, poor fit]
15 | COc1ccc(C(CNC(=O)C(CCSC)NC(=O)c2ccccc2OC)N2CCCCC2)cc1 (stereo not drawn) | inactive: 7.23% | –
16 | CC(=O)NC(CCS(C)(=O)=O)C(=O)Nc1cccc(C)c1 (stereo not drawn) | – | inconclusive [inhibitor, full curve, poor fit]
17 | COc1ccc(/C=N/NC(=O)C2CC2)c(OC)c1OC | – | inconclusive [inhibitor, full curve, poor fit]
18 | CCCN(CCC)C(=O)C1CCCN(S(=O)(=O)c2ccc3c(c2)oc(=O)n3C)C1 (stereo not drawn) | – | inconclusive [inhibitor, full curve, poor fit]
19 | CCOC(=O)CNC(=O)Nc1ccccc1C(=O)OC | – | inconclusive [inhibitor, single point]
20 | CCc1nn(CC(=O)N2CCN(CC)CC2)c(=O)c2cccn12 | – | inconclusive [inhibitor, full curve, poor fit]
21 | COc1ccccc1OCCC(=O)OCC(=O)NC(C)c1ccccc1 (stereo not drawn) | inactive: 1.44% | –
22 | CCc1nnc(NC(=O)Cn2nnc(-c3ccccc3F)n2)s1 | – | inconclusive [inhibitor, full curve, poor fit]
23 | O=C(Cc1csc(NC(=O)Nc2ccc(Cl)cc2)n1)NCc1ccccn1 | inactive: -5.24% | –

Row | SMILES | activity change, negative = inhibition | Potency
24 | CCOc1cccc(/C=N/N=C/c2cccc(OCC)c2O)c1O | inactive: -2.98% | –
25 | CC(NC(=O)c1ccc(NS(C)(=O)=O)cc1)c1ccccc1 (stereo not drawn) | – | inconclusive [inhibitor, partial curve]
26 | CCc1ccc(NC(=O)N2CCC(c3ccccc3)C2)cc1 (stereo not drawn) | inactive: 3.87% | –
27 | C=C1CC(C(=O)N/N=C/c2ccccc2)C1 | – | inconclusive [inhibitor, full curve]
28 | NC1=NC(=Nc2ccc(S(N)(=O)=O)cc2)c2ccccc21 | inactive: -13.9% | –
29 | Cc1ccccc1-n1c(C)n[nH]c1=S | – | inconclusive [inhibitor, partial curve]
30 | COCc1ccc(C(=O)NC2CCSc3ccccc32)cc1 (stereo not drawn) | – | inconclusive [inhibitor, full curve, poor fit]
31 | COc1ccc(-c2cc(=O)c3cc(OC)ccc3o2)cc1 | – | inconclusive [inhibitor, full curve]
32 | Cc1[nH]n(C(N)=S)c(=O)c1N=Nc1ccc(S(=O)(=O)N2CCCC2)cc1 | inactive: 3.02% | –
33 | O=C(NNC(=O)c1cc(-c2cccc(Br)c2)nc2ccccc12)c1csc(N2CCOCC2)n1 | – | inconclusive [inhibitor, partial curve, poor fit]
34 | CCCCC/C=N\NC(=O)Cc1ccc([N+](=O)[O-])cc1 | – | inconclusive [inhibitor, single point]
35 | CC1(c2nnc(-c3cccc(Cl)c3)o2)CC(c2cccc([N+](=O)[O-])c2)=NO1 (stereo not drawn) | inactive: -18.5% | –
36 | O=C(COc1ccc([N+](=O)[O-])cc1)N(Cc1cccs1)C1CCS(=O)(=O)C1 (stereo not drawn) | – | inconclusive [inhibitor, partial curve, poor fit]
37 | O=C(O)CCCCCNS(=O)(=O)c1cccc2nsnc12 | – | inconclusive [inhibitor, full curve, poor fit]
38 | CCC(=O)Nc1nonc1-c1nc2ccccc2n1CC(C)C | – | inconclusive [inhibitor, full curve, poor fit]
39 | COc1cc2c(cc1OC)CN(Cc1cc(=O)oc3cc(C)c(Cl)cc13)CC2 | inactive: -11.1% | –
40 | Cn1nnnc1SCc1ccc(C(=O)Nc2nccs2)cc1 | inactive: -11.7% | –
41 | COc1cc2[nH]c(=S)nc(NCc3ccc(C)cc3)c2cc1OC | inactive: -1.67% | –
42 | O=P(OCC(F)(F)C(F)F)(N1CCCCC1)N1CCCCC1 | – | inconclusive [inhibitor, full curve, poor fit]
43 | COC(=O)Cc1c(O)ccn(Cc2ccccc2OC)c1=O | – | inconclusive [inhibitor, single point]
44 | COc1ccc(NC(=O)NC2CCCCCCC2)cc1OC | – | inconclusive [inhibitor, partial curve]
45 | Cc1cccnc1Nc1ncnc(N)c1[N+](=O)[O-] | – | inconclusive [inhibitor, full curve, poor fit]
46 | O=c1sc(/C=N/Nc2ccccc2)c(Cl)n1Cc1ccccc1 | inactive: 3.7% | –

Row | SMILES | activity change, negative = inhibition | Potency
47 | N#C/C(=C\c1ccc(C#N)cc1)C(=O)N1CCCC1 | – | inconclusive [inhibitor, full curve, poor fit]
48 | CCOC(=O)CNS(=O)(=O)c1cc(-c2nnc(Nc3cccc(O)c3)c3ccccc23)ccc1C | inactive: 2.12% | –
49 | COc1ccc(-c2cc(C(=O)Nc3ccc(Cl)cc3Cl)c3ccccc3n2)cc1OC | – | inconclusive [inhibitor, partial curve, poor fit]
50 | CCOC(=O)C1=C(C)N=c2s/c(=C\c3ccc(OC(C)=O)c(OCC)c3)c(=O)n2C1/C=C/c1ccccc1 (stereo not drawn) | inactive: 0.63% | –
51 | COc1ccc(C(=O)Nc2cc(C)on2)cc1OC | – | inconclusive [inhibitor, full curve, poor fit]
52 | O=C(CSc1n[nH]c(-c2ccccc2Cl)n1)N1CCN(c2ccccc2)CC1 | inactive: 19.5% | –
53 | Cc1ccc(SCC(=O)Nc2cccc(C(=O)NC(C)(C)C)c2)cc1 | – | inconclusive [inhibitor, partial curve, poor fit]
54 | CC(C)C1Oc2ccccc2C(=O)N(CC(=O)c2ccc3c(c2)OCCO3)C1=O (stereo not drawn) | – | inconclusive [inhibitor, full curve, poor fit]
55 | CCOC(=O)C1C(=O)OC2(CCOC(C)(C)C2)C1C(=O)OCC (stereo not drawn) | – | inconclusive [inhibitor, single point]
56 | CCc1ccc2[nH]c(=O)c(CN(CCCN3CCOCC3)C(=O)Nc3ccc(Cl)cc3)cc2c1 | – | inconclusive [inhibitor, single point]
57 | CC1CN2C(c3ccc([N+](=O)[O-])cc3)=CSC2=N1 (stereo not drawn) | – | inconclusive [inhibitor, partial curve]
58 | CCOc1ccccc1CNS(=O)(=O)c1ccc(-c2coc(C)n2)cc1 | inactive: 4.05% | –
59 | NC(=O)C1CCN(C2=C(NS(=O)(=O)c3ccc(Br)cc3)C(=O)c3ccccc3C2=O)CC1 | – | inconclusive [inhibitor, full curve, poor fit]
60 | COc1ccc(/C(N)=N/OC(=O)c2ccc3c(c2)OCO3)cc1 | – | inconclusive [inhibitor, full curve, poor fit]
61 | CCCCn1c(N)c(N(Cc2ccccc2OC)C(=O)COc2ccc(F)cc2Cl)c(=O)[nH]c1=O | – | inconclusive [inhibitor, partial curve, poor fit]
62 | Cn1cc(CNC(=O)c2sc3cccc(Cl)c3c2Cl)cn1 | – | inconclusive [inhibitor, full curve]
63 | Cc1cc(NS(=O)(=O)c2ccc(NC(=O)CCCC(=O)O)cc2)nc(C)n1 | – | inconclusive [inhibitor, partial curve]
64 | O=C(N/N=C/C=C/c1ccccc1)c1cccc(Br)c1 | – | inconclusive [inhibitor, full curve, poor fit]
65 | COc1ccc(C(=O)Nc2cc(OC)ccc2OC)cc1 | inactive: -0.461% | –
66 | O=C(c1ccc(F)cc1)c1cn(Cc2ccc(F)cc2)c2cc3c(cc2c1=O)OCCO3 | – | inconclusive [inhibitor, partial curve, poor fit]
67 | CN1C(=O)C(O)(c2sc(N)nc2-c2ccccc2)c2ccccc21 (stereo not drawn) | inactive: -14.9% | –
68 | Cc1ccc(C)c(SCC(=O)NCc2ccco2)c1 | inactive: -1% | –
